Among all 52,000 compounds or so, about 4,300 (8.3%) were called active. Cut-off read from the data, not from the text of the source: active = survival mostly below about 52% (no sharp cut-off); inactive = mostly above about 56%. Some of the results follow.
These molecules were tested on DeltatarO mutant (assay: S. aureus survival, RN4220 and DeltatarO strains – OD600, teichoic acid synthesis inhibitors, primary screen (AID 463173)). Conditions: S. aureus RN4220 wild type/DeltatarO growth, OD600, 18 h, active compounds read low, screened at 18.75 µg/mL (by protocol).

Question: For `CCc1ccc(N2CC(C(=O)NC(C)CC)CC2=O)cc1` (configuration not stated), which survival is on record?
Answer: inactive: 80%

Question: For `COc1ccccc1-c1coc2c(CN(C)C)c(O)ccc2c1=O`, which survival is on record?
Answer: inactive: 66%

Question: How did the survival turn out when `O=C(CN1C(=O)c2cccc3cccc1c23)Nc1ccccc1Br` was run?
Answer: inactive: 63%

Question: `CCCCNS(=O)(=O)c1ccc2nc(-c3cccnc3)cc(C(=O)NC(C)C)c2c1` was tested. Which survival did it give?
Answer: inactive: 83%

Question: For `CCCC1N=C2c3ccccc3N=C(SCC(=O)NCCc3ccc(Cl)cc3)N2C1=O` (configuration not stated), which survival is on record?
Answer: inactive: 93%

Question: Which survival does the source give for `CCCn1c(=O)c2sccc2n2c(CCCC(=O)N3CCN(c4cccc(Cl)c4)CC3)nnc12` here?
Answer: inactive: 79%

Question: How did the survival turn out when `CC(=O)c1cccc(NC(=O)CN2C(=O)CC(c3ccc(C)cc3C)=Nc3ccccc32)c1` was run?
Answer: inactive: 129%

Question: How did the survival turn out when `O=C(/C=C/c1ccc(Cl)cc1)N1CCC(c2nc3ccccc3o2)CC1` was run?
Answer: inactive: 107%

Question: How did the survival turn out when `CCCCN(CC)CCCNC(=O)c1cn(CC)c2ccc(S(=O)(=O)N3CCc4ccccc4C3)cc2c1=O` was run?
Answer: inactive: 79%

Question: How did the survival turn out when `Cc1ccc(NS(=O)(=O)c2ccc3nc(-c4ccccc4)[nH]c3c2)c(Br)c1` was run?
Answer: inactive: 79%

Question: `Cc1sc2ncn(CC(=O)N(C)c3ccc(C(C)C)cc3)c(=O)c2c1S(=O)(=O)N1CCC(C)CC1` was tested. Which survival did it give?
Answer: inactive: 81%

Question: With `NC(=O)c1cc2c(ccc3ccccc32)oc1=O` as the molecule, how does the survival read?
Answer: inactive: 96%

Question: With `COc1ccc(-c2noc(CC(=O)Nc3cc(OC)ccc3OC)n2)cc1` as the molecule, how does the survival read?
Answer: inactive: 63%

Question: Which survival does the source give for `CC1CCC(NC(=O)C2(C)Cc3ccccc3C(=O)N2Cc2ccc(Cl)cc2)CC1` (configuration not stated) here?
Answer: inactive: 96%

Question: For `O=C(Cn1cc(S(=O)(=O)Cc2ccccc2Cl)c2ccccc21)NCCc1ccccc1`, which survival is on record?
Answer: inactive: 66%

Question: Which survival does the source give for `CCOc1ccccc1CNS(=O)(=O)c1cc2c(cc1C)NC(=O)CO2` here?
Answer: inactive: 144%

Question: How did the survival turn out when `Cc1ccccc1CNC(=O)CCC(=O)N1CCSc2ccccc21` was run?
Answer: inactive: 49%

Question: How did the survival turn out when `Cc1ccc(-c2cc3ncc4c(n3n2)-c2cc(Cl)ccc2OC4)cc1` was run?
Answer: inactive: 87%

Question: With `CCn1nnc2cc(C(=O)Nc3cc(C)ccc3C)ccc21` as the molecule, how does the survival read?
Answer: inactive: 77%

Question: How did the survival turn out when `COc1ccc(NC(=O)CC2C(=O)N(c3cccc(OC)c3)C(=O)N2CCC2=CCCCC2)cc1` (configuration not stated) was run?
Answer: inactive: 112%

Question: For `CCOc1ccc(CC(=O)NCc2ccc3c(c2)CCN3C(=O)c2ccccc2)cc1OCC`, which survival is on record?
Answer: inactive: 72%

Question: For `CCc1cc2c(cc3c(=O)n(CC(=O)N4CCN(c5cccc(C)c5C)CC4)nc(CC)n32)s1`, which survival is on record?
Answer: inactive: 84%

Question: For `COc1ccc(CCNCc2c(C(=O)O)c(C)n(Cc3cccc(Cl)c3)c2C)c(OC)c1OC`, which survival is on record?
Answer: inactive: 95%

Question: Which survival does the source give for `CCc1ccccc1NC(=O)CCC(=O)N1CC(C)Oc2ccc(C)cc21` (configuration not stated) here?
Answer: inactive: 62%

Question: `O=C(Cn1cc(C(=O)c2ccccc2)c(=O)c2cc3c(cc21)OCCO3)Nc1ccc(F)c(F)c1` was tested. Which survival did it give?
Answer: inactive: 121%

Question: Which survival does the source give for `Cc1nc2cc(N3CCN(C)CC3)c(NC(=O)C(C)(C)C)cc2c(=O)n1Cc1ccccc1` here?
Answer: inactive: 77%

Question: Which survival does the source give for `Cc1ccc(C)c(N2CCN(S(=O)(=O)c3ccc(C(=O)N(C)C)s3)CC2)c1` here?
Answer: inactive: 60%

Question: Which survival does the source give for `COc1ccc(Cl)cc1NC(=O)c1cc(S(=O)(=O)N(C)Cc2ccccc2)ccc1F` here?
Answer: inactive: 74%

Question: With `CCOc1ccc(-c2cc(C(=O)NCCc3ccc(OC)c(OC)c3)c3c(-c4ccc(F)cc4)[nH]nc3n2)cc1` as the molecule, how does the survival read?
Answer: inactive: 85%

Question: `COc1cccc(-c2nc(SCC(=O)Nc3ccc4c(c3)OCCO4)c(-c3ccc(C)cc3)[nH]2)c1` was tested. Which survival did it give?
Answer: inactive: 62%

Question: `O=C1OCCC1Sc1nc2ccccc2n1Cc1ccccc1` (configuration not stated) was tested. Which survival did it give?
Answer: active: 73%

Question: With `CCOC(=O)c1cnc2c(C)cccc2c1Nc1ccc(OC(C)C)cc1` as the molecule, how does the survival read?
Answer: active: 2%

Question: With `Cc1ccc(C)c(N2CCN(c3nc4ccc(C(=O)c5ccccc5)cc4n4cnnc34)CC2)c1` as the molecule, how does the survival read?
Answer: inactive: 79%

Question: How did the survival turn out when `COc1ccccc1CN(Cc1c(Cl)cccc1Cl)S(=O)(=O)c1ccc(Br)cc1` was run?
Answer: inactive: 102%

Question: For `Cc1cccc(OCCCn2c(CCNC(=O)C3CCCCC3)nc3ccccc32)c1`, which survival is on record?
Answer: inactive: 37%

Question: For `NC(=O)CSc1nc2ccc(NC(=O)COc3ccccc3Cl)cc2s1`, which survival is on record?
Answer: inactive: 85%

Question: With `Cc1cccc(-n2nc(C)c(C(=O)N3CCN(c4ccccc4)CC3)c2-n2cccc2)c1` as the molecule, how does the survival read?
Answer: inactive: 66%

Question: How did the survival turn out when `CS(=O)(=O)N(Cc1ccccc1)c1ccc(C(=O)Nc2ccc(Cl)cc2)cc1` was run?
Answer: inactive: 145%

Question: Which survival does the source give for `COc1cc(C(=O)NCC#N)cc(OC)c1OC` here?
Answer: inactive: 101%

Question: For `COc1ccccc1C(=O)Nc1ccc(S(=O)(=O)Nc2ncccn2)cc1`, which survival is on record?
Answer: inactive: 77%

Question: How did the survival turn out when `Cc1cc(F)ccc1NC(=O)CCn1nc(C)c(S(=O)(=O)N2CCCCC2)c1C` was run?
Answer: inactive: 88%

Question: Which survival does the source give for `Cc1ccc(C)c(N2CCN(C(=O)C(CC(C)C)NS(=O)(=O)c3ccc4nc(C)sc4c3)CC2)c1` (configuration not stated) here?
Answer: inactive: 85%

Question: `Cc1cc(C)cc(OCC(=O)N2CCC(c3nc4ccccc4s3)CC2)c1` was tested. Which survival did it give?
Answer: inactive: 85%

Question: With `CCc1cccc(C)c1NC(=O)CSc1nc2c(c(=O)[nH]1)CCC2` as the molecule, how does the survival read?
Answer: inactive: 103%

Question: With `CCCN1C(=O)C(Cc2nc3ccccc3c(=O)n2-c2ccc(OC)cc2)c2cc(C)ccc21` (configuration not stated) as the molecule, how does the survival read?
Answer: inactive: 68%

Question: With `O=C(O)CCCC(=O)n1cnc2ccccc21` as the molecule, how does the survival read?
Answer: inactive: 87%

Question: With `Cc1cc(C(=O)O)c(CN2CCCC2)o1` as the molecule, how does the survival read?
Answer: active: 74%

Question: How did the survival turn out when `CCOc1cc(C2NC(=O)NC(C)=C2C(=O)Nc2ccc(F)cc2)ccc1O` (configuration not stated) was run?
Answer: inactive: 81%

Question: Which survival does the source give for `Cn1cc(S(=O)(=O)c2cccc(Cl)c2)c(=O)c2cc(F)c(N3CCCCC3)cc21` here?
Answer: inactive: 76%

Question: `O=C(NCCc1ccc(Cl)cc1)c1ccc(CSCc2cccc(Cl)c2)o1` was tested. Which survival did it give?
Answer: inactive: 97%

Question: How did the survival turn out when `Cc1ccc(Cl)cc1NC(=O)c1oc2ccc(S(=O)(=O)N3CCCCCC3)cc2c1C` was run?
Answer: inactive: 93%

Question: Which survival does the source give for `CCN(CC)c1ncnc2ccc(Br)cc12` here?
Answer: inactive: 112%

Question: For `CC(C)C(=O)OCc1cc(=O)n2nc(C3CC3)sc2n1`, which survival is on record?
Answer: inactive: 86%

Question: `O=C(NCc1cccs1)c1c[nH]c2c(F)cccc2c1=O` was tested. Which survival did it give?
Answer: inactive: 90%

Question: With `CCCCN(C)S(=O)(=O)c1ccc(C(=O)Nc2ccc(-c3nc4ccc(C)cc4s3)cc2)cc1` as the molecule, how does the survival read?
Answer: inactive: 95%

Question: `CCN1CCN(c2oc(/C=C/c3cc(OC)c(OC)c(OC)c3)nc2C#N)CC1` was tested. Which survival did it give?
Answer: inactive: 72%

Question: For `S=c1[nH]c2ccc3ccccc3c2[nH]1`, which survival is on record?
Answer: inactive: 78%
